# Measurements from the supplement of paper PMC8728848.
# The other results are listed elsewhere or left out.
# Tests used:
# Test in all cases: glycan array binding signal (z-score within array); higher = stronger binding
# Conditions in all cases: glycan notation: IUPAC condensed, linker removed
# [1] = biological target: Fuc(a1-2)Gal(b1-4)GlcNAc(b1-3)Gal(b1-4)GlcNAc(b1-2)Man(a1-3)[Fuc(a1-2)Gal(b1-4)GlcNAc(b1-3)Gal(b1-4)GlcNAc(b1-2)Man(a1-6)]Man(b1-4)GlcNAc(b1-4)GlcNAc
# Method in brief: (§1)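 From the Consortium for Functional Glycomics database, 3228 arrays were curated, keeping only those whose protein sequence was available. Binding is given as a within-array Z-score averaged across arrays sharing a protein sequence and across linkers. Negative Z-scores can be read as non-binding.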
# [2] = biological target: Fuc(a1-2)Gal(b1-4)GlcNAc(b1-3)Gal(b1-4)GlcNAc(b1-3)Gal(b1-4)GlcNAc
# Method in brief: as §1
# [3] = biological target: Fuc(a1-2)Gal(b1-4)GlcNAc(b1-3)GalNAc
# Method in brief: as §1
# [4] = biological target: Fuc(a1-2)Gal(b1-4)GlcNAc(b1-3)[Fuc(a1-2)Gal(b1-4)GlcNAc(b1-6)]GalNAc
# Method in brief: as §1
# [5] = biological target: Fuc(a1-2)Gal(b1-4)GlcNAc(b1-3)[Fuc(a1-3)[Gal(b1-4)]GlcNAc(b1-6)]Gal(b1-4)Glc
# Method in brief: as §1
# [6] = biological target: Fuc(a1-2)Gal(b1-4)GlcNAc(b1-6)GalNAc
# Method in brief: as §1
# [7] = biological target: Fuc(a1-2)Gal(b1-4)GlcNAc6S
# Method in brief: as §1
# [8] = biological target: Fuc(a1-2)Gal(b1-4)[Fuc(a1-3)]GlcNAc
# Method in brief: as §1
# [9] = biological target: Fuc(a1-2)Gal(b1-4)[Fuc(a1-3)]GlcNAc(b1-2)Man(a1-3)[Fuc(a1-2)Gal(b1-4)[Fuc(a1-3)]GlcNAc(b1-2)Man(a1-6)]Man(b1-4)GlcNAc(b1-4)[Fuc(a1-6)]GlcNAc
# Method in brief: as §1
# [10] = biological target: Fuc(a1-2)Gal(b1-4)[Fuc(a1-3)]GlcNAc(b1-2)[Fuc(a1-2)Gal(b1-4)[Fuc(a1-3)]GlcNAc(b1-4)]Man(a1-3)[Fuc(a1-2)Gal(b1-4)[Fuc(a1-3)]GlcNAc(b1-2)Man(a1-6)]Man(b1-4)GlcNAc(b1-4)GlcNAc
# Method in brief: as §1
# [11] = biological target: Fuc(a1-2)Gal(b1-4)[Fuc(a1-3)]GlcNAc(b1-3)Gal(b1-4)[Fuc(a1-3)]GlcNAc
# Method in brief: as §1
# [12] = biological target: Fuc(a1-2)Gal(b1-4)[Fuc(a1-3)]GlcNAc(b1-3)Gal(b1-4)[Fuc(a1-3)]GlcNAc(b1-3)Gal(b1-4)[Fuc(a1-3)]GlcNAc
# Method in brief: as §1
# [13] = biological target: Fuc(a1-2)Gal(b1-4)[Fuc(a1-3)]GlcNAc(b1-3)GalNAc
# Method in brief: as §1
# [14] = biological target: Fuc(a1-2)Gal(b1-4)[Fuc(a1-3)]GlcNAc(b1-3)[Neu5Ac(a2-6)Gal(b1-4)GlcNAc(b1-6)]Gal(b1-4)Glc
# Method in brief: as §1
# [15] = biological target: Fuc(a1-2)Gal3S(b1-4)GlcNAc
# Method in brief: as §1
# [16] = biological target: Fuc(a1-2)Gal6S(b1-3)GlcNAc
# Method in brief: as §1
# [17] = biological target: Fuc(a1-2)Gal6S(b1-3)GlcNAc6S
# Method in brief: as §1
# Fuc(a1-2)Gal6S(b1-4)Glc = biological target: Fuc(a1-2)Gal6S(b1-4)Glc
# Method in brief: as §1
# [18] = biological target: Fuc(a1-2)Gal6S(b1-4)Glc6S
# Method in brief: as §1
# Fuc(a1-2)[Gal(a1-3)]Gal = biological target: Fuc(a1-2)[Gal(a1-3)]Gal
# Method in brief: as §1
# [19] = biological target: Fuc(a1-2)[Gal(a1-3)]Gal(b1-3)GalNAc
# Method in brief: as §1
# [20] = biological target: Fuc(a1-2)[Gal(a1-3)]Gal(b1-3)GalNAc(b1-3)Gal(a1-4)Gal(b1-4)Glc
# Method in brief: as §1
# [21] = biological target: Fuc(a1-2)[Gal(a1-3)]Gal(b1-3)GlcNAc
# Method in brief: as §1
# [22] = biological target: Fuc(a1-2)[Gal(a1-3)]Gal(b1-3)GlcNAc(b1-2)Man(a1-3)[Fuc(a1-2)[Gal(a1-3)]Gal(b1-3)GlcNAc(b1-2)Man(a1-6)]Man(b1-4)GlcNAc(b1-4)GlcNAc
# Method in brief: as §1
# [23] = biological target: Fuc(a1-2)[Gal(a1-3)]Gal(b1-3)GlcNAc(b1-2)Man(a1-3)[Fuc(a1-2)[Gal(a1-3)]Gal(b1-3)GlcNAc(b1-2)Man(a1-6)]Man(b1-4)GlcNAc(b1-4)[Fuc(a1-6)]GlcNAc
# Method in brief: as §1
# [24] = biological target: Fuc(a1-2)[Gal(a1-3)]Gal(b1-3)GlcNAc(b1-3)GalNAc
# Method in brief: as §1
# [25] = biological target: Fuc(a1-2)[Gal(a1-3)]Gal(b1-3)GlcNAc(b1-6)GalNAc
# Method in brief: as §1
# [26] = biological target: Fuc(a1-2)[Gal(a1-3)]Gal(b1-4)Glc
# Method in brief: as §1
# [27] = biological target: Fuc(a1-2)[Gal(a1-3)]Gal(b1-4)GlcNAc
# Method in brief: as §1
# [28] = biological target: Fuc(a1-2)[Gal(a1-3)]Gal(b1-4)GlcNAc(b1-2)Man
# Method in brief: as §1
binder,measurement,setting,value
"Dectin2 (Homo sapiens), Q6EIG7 (protein) MMQEQQPQSTEKRGWLSLRLWSVAGISIALLSACFIVSCVVTYHFTYGETGKRLSELHSYHSSLTCFSEGTKVPAWGCCPASWKSFGSSCYFISSEEKVWSKSEQNCVEMGAHLVVFNTEAEQNFIVQQLNESFSYFLGLSDPQGNNNWQWIDKTPYEKNVRFWHLGEPNHSAEQCASIVFWKPTGWGWNDVICETRRNSICEMNKIYL",glycan array binding signal (z-score),[1],-0.017
same,glycan array binding signal (z-score),[2],-0.168
same,glycan array binding signal (z-score),[3],-0.178
same,glycan array binding signal (z-score),[4],-0.156
same,glycan array binding signal (z-score),[5],-0.054
same,glycan array binding signal (z-score),[6],-0.144
same,glycan array binding signal (z-score),[7],0.311
same,glycan array binding signal (z-score),[8],-0.151
same,glycan array binding signal (z-score),[9],-0.008
same,glycan array binding signal (z-score),[10],0.049
same,glycan array binding signal (z-score),[11],-0.126
same,glycan array binding signal (z-score),[12],-0.114
same,glycan array binding signal (z-score),[13],-0.082
same,glycan array binding signal (z-score),[14],-0.174
same,glycan array binding signal (z-score),[15],-0.162
same,glycan array binding signal (z-score),[16],-0.162
same,glycan array binding signal (z-score),[17],-0.054
same,glycan array binding signal (z-score),Fuc(a1-2)Gal6S(b1-4)Glc,-0.138
same,glycan array binding signal (z-score),[18],0.371
same,glycan array binding signal (z-score),Fuc(a1-2)[Gal(a1-3)]Gal,-0.164
same,glycan array binding signal (z-score),[19],-0.172
same,glycan array binding signal (z-score),[20],-0.16
same,glycan array binding signal (z-score),[21],-0.104
same,glycan array binding signal (z-score),[22],-0.132
same,glycan array binding signal (z-score),[23],0.132
same,glycan array binding signal (z-score),[24],-0.171
same,glycan array binding signal (z-score),[25],-0.137
same,glycan array binding signal (z-score),[26],-0.145
same,glycan array binding signal (z-score),[27],-0.16
same,glycan array binding signal (z-score),[28],-0.149
